Some of the results follow. Further columns of the screen follow, without active or inactive calls. The list favours compounds with an active or inconclusive main result.
test: insulin promoter activators in MIN6 cells, imaging, high-content screening, mouse beta cells (AID 1625); details: MIN6 insulin promoter-GFP reporter, measured here: cytotoxicity, nuclei count, at 5 µM;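 also: total cells summed across four imaged fields per well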

Compound | cell count
O=C1S/C(=C\c2ccc(N3CCOCC3)o2)C(=O)N1Cc1c(F)cccc1Cl | 1660 cells
Cc1ccc(C(=O)OCn2ncc(Cl)c(Cl)c2=O)cc1 | 99 cells
Cc1cc(Nc2nn(C)c(N)c2C#N)ccc1F | 618 cells
C[C@@H](O)[C@@H]1NC(=O)c2cc([N+](=O)[O-])cc(I)c2NCC[C@@H](C(N)=O)NC(=O)CNC1=O | 341 cells
O=C(CC12CC3CC(CC(C3)C1)C2)NCC(=O)N1CCc2ccccc2C1 | 904 cells
Cc1cc(C)n(-c2ccc(C(=O)OCC(=O)N(CC(C)C)C3CCS(=O)(=O)C3)cc2)n1 (centres undefined) | 1010 cells
CCCCC(=O)NCc1ccc(Cl)cc1 | 462 cells
CCOC(=O)C1CCCN(C(=O)C2CCCN(S(=O)(=O)c3ccc4c(c3)oc(=O)n4C)C2)C1 (centres undefined) | 373 cells
CCN(CCNC(=O)C1CCCN(S(=O)(=O)CC)C1)c1ccccc1 (centres undefined) | 1080 cells
COc1ccc(NC(=O)/C(Cl)=C(/Cl)S(=O)Cc2ccc(C)cc2)cn1 (centres undefined) | 498 cells
Cn1c(=O)n(C)c2cc(C(=O)Nc3ccc4c(c3)OCO4)ccc21 | 497 cells
O=C1C(Cl)=C(Nc2ccc3cn[nH]c3c2)C(=O)c2ccccc21 | 205 cells
O=C1N/C(=N/Nc2ccccc2)S/C1=C\c1ccccc1 | 1250 cells
CSc1nsc(/C=C/Nc2ccc(C)cc2)c1C#N | 1110 cells
NCC12CC3CC(C1)CC(CN)(C3)C2 | 928 cells
COc1ccc2nc(Nc3nc(CSc4nc5ccccc5[nH]4)cc(=O)[nH]3)nc(C)c2c1 | 378 cells
CC1CC(C)C[N+](=C2C=C(N3CCCC3)CC(C)(C)C2)C1 (centres undefined) | 378 cells
CC(C)=NNc1nc2c(c(=O)n(C)c(=O)n2C)n1CCc1ccccc1 | 1120 cells
CC(=O)n1c(C=Nc2ccccc2)c(O)c2ccccc21 | 1060 cells
Cc1ccc(S(=O)(=O)CC2CSc3nc4ccccc4n32)cc1 (centres undefined) | 459 cells
C/C(=N\S(=O)(=O)c1ccc(C)cc1)N1CCN(S(=O)(=O)c2ccccc2)C1 | 1140 cells
CC[n+]1c(/C=C/C=C/N(C(C)=O)c2ccccc2)sc2ccccc21 | 399 cells
N#C/C(=C\C1CC=CCC1)c1nc2ccccc2[nH]1 (centres undefined) | 318 cells

Compound | cell count
CCCCCCn1c(NCC)nc2c1c(=O)n(C)c(=O)n2C | 258 cells
Cc1nc(N2CCN(C(=O)c3ccco3)CC2)c2c3c(sc2n1)CC(C)CC3 (centres undefined) | 276 cells
CCn1c(C)c(P(c2ccccc2)c2ccccc2)[n+]2ccccc12 | 499 cells
O=C(CC1SC(=Nc2ccc(OC(F)F)cc2)N(CCC2=CCCCC2)C1=O)Nc1ccccc1F (centres undefined) | 315 cells
Cc1nc(NC(=O)COC(=O)CCS(=O)(=O)c2ccccc2Cl)c(Cl)cc1Cl | 1330 cells
Oc1ccc(Cl)cc1C1=Nc2ccccc2N=C(c2ccco2)C1 | 1130 cells
CCC(=O)Nc1cc(C(=O)OCC(=O)c2ccccc2)ccc1C | 249 cells
CC[n+]1c(/C=C/c2ccc(N(C)C)cc2)ccc2ccccc21 | 74 cells
COc1cc(C2Oc3ccccc3C=C2[N+](=O)[O-])cc(OC)c1OC (centres undefined) | 417 cells
CC1(C)CC(N2CCN(Cc3ccccc3)CC2)=CC(=[N+]2CCCCC2)C1 | 497 cells
Brc1ccc2ncnc(NCc3ccco3)c2c1 | 334 cells
CCOc1cc([N+](=O)[O-])cc2c1C(=O)Nc1ccccc1O2 | 1220 cells
FC(F)(F)c1nc(N2CCCC2)ncc1-c1nnnn1-c1ccc(Cl)cc1 | 353 cells
CC1=Nc2ccccc2/C1=C/c1sc(=S)n(-c2cccc(C(=O)O)c2)c1O | 1210 cells
Nc1c(C(=O)N/N=C/c2ccccc2Cl)oc2nc(-c3ccccc3)cc(-c3ccco3)c12 | 963 cells
Cc1cc(C(=O)COC(=O)C2=NNC(=O)CC2)c(C)n1-c1ccc(OC(F)F)cc1 | 309 cells
CCN(CC)c1ccc(/C=N/Nc2nc(C)cc(=O)[nH]2)c(O)c1 | 360 cells
Cc1ccc(Cn2c(=N)n(CC(=O)c3ccc([N+](=O)[O-])cc3)c3ccccc32)cc1 | 478 cells
CCN(CC)c1ccc2cc(C(N)=O)/c(=N\NC(=O)c3ccncc3)oc2c1 | 1600 cells
CCC(C)NC(=O)CC1Oc2ccc(C)cc2NC1=O (centres undefined) | 468 cells
O=C(N/N=C/c1c(O)ccc2ccccc12)c1cccc(C(F)(F)F)c1 | 368 cells
CN(C)C(=O)CN(c1ccc2c(c1)OCO2)S(C)(=O)=O | 1100 cells
CC[n+]1c(/C=C2/C=C(C)CC(C)(C)C2)sc2ccc(OC)cc21 | 271 cells

Compound | cell count
CCOC(=O)c1cnc(SCC(=O)Nc2cc(OC)ccc2OC)nc1N | 342 cells
OC(COCc1cccs1)CN1CCN(c2cccc(Cl)c2)CC1 (centres undefined) | 440 cells
COc1ccc(C2=NOC(C(=O)Nc3cc(C)nn3-c3ccccc3)C2)cc1OC (centres undefined) | 316 cells
Cc1cc(C)cc(-n2c(=O)c3sccc3n(CC(=O)NCc3ccco3)c2=O)c1 | 1100 cells
CCn1nnc2sc3c(c2c1=O)CCC(C)C3 (centres undefined) | 1400 cells
O=C(NC1C=CS(=O)(=O)C1)c1sc2ccccc2c1Cl (centres undefined) | 981 cells
Cc1cccc2cc3c(N)c(C(=O)N4CCc5ccccc54)sc3nc12 | 1230 cells
C=CCc1c(C)nc(C)nc1N/N=C/c1ccc(N(C)C)cc1 | 389 cells
COc1cc(-c2nc(-c3ccc4c(c3)-c3ccccc3S4(=O)=O)c(-c3ccccc3)[nH]2)cc(OC)c1OC | 458 cells
CC1(C)Cc2c(ccc3ccccc23)C(c2cc3ccccc3oc2=O)=N1 | 1290 cells
c1cc2c(cc1C1CCCCC1)c1c3n2CCCNC3CCC1 (centres undefined) | 287 cells
Cc1ccc(S(=O)(=O)N2CCCOC2CNC(=O)C(=O)NCc2ccco2)cc1 (centres undefined) | 495 cells
O=C(COC(=O)c1ccco1)NCC1CCCO1 (centres undefined) | 1000 cells
O=S(=O)(c1ccccc1)N1CCn2c(nc3ccccc32)C1 | 199 cells
O=[N+]([O-])c1ccc(N2N=C(c3ccco3)CC2c2ccccc2)cc1 (centres undefined) | 1240 cells
Cc1ccc(-c2cn3nc(-c4ccccc4)c(-c4ccccc4)nc3n2)cc1 | 1040 cells
CC(C)NC(=O)/C(C#N)=C\c1ccc(N(C)C)o1 | 1640 cells
O=c1oc2cc(O)ccc2cc1-c1nc2c(s1)CCc1ccccc1-2 | 1620 cells
Cc1ccc(CNc2ccc3c(c2)OCO3)cc1 | 977 cells
C=CCN1C=CC(=CC=C(C#N)C#N)C=C1 | 912 cells
Oc1c(CN2CCN(c3ccc(F)cc3)CC2)cc(Cl)c2cccnc12 | 399 cells
CCOC(=O)c1c(C(C#N)C#N)cc(C)nc1C | 468 cells
Cc1cccc(Oc2cc(NC(=O)c3ccccc3)cc([N+](=O)[O-])c2)c1 | 395 cells

Source: PubChem BioAssay AID1625 (Sanford-Burnham Center for Chemical Genomics, 2009)
